Experimental findings from the supplement of paper PMC10369915 are described below.

The other results are listed elsewhere or left out. Cut-off read from the data, not from the text of the source: active = 3.2 or more and inactive = the rest. The signal is at background level for most entries.
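Note: displayed peptides selected on beads carrying the immobilized SH2 domain, with library peptides lacking any tyrosine serving as negative controls.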

The first assay concerns the target SHP2 C-SH2 domain E139D. The assay can be described thus: enrichment score (SH2-bound / input frequency) (ratio); bacterial display of known human phosphotyrosine sites (pTyr-Var adds point mutants) read by sequencing; higher = stronger binding; tyrosines were phosphorylated by kinases first. The conditions noted are these: peptide library: pTyr-Var.
As for LFIGQYSGKKE [L1CAM_Y1229_S1224L], the enrichment score is inactive: 2.12.

In the case of GLRFGYGGLGG [KRTAP20-2_Y15_V17G_YF], the enrichment score was inactive: 1.07.

As to KENITYMKREQ [L1TD1_Y24], the enrichment score was inactive: 0.748.

With HSGIYYKPESL [L2HGDH_Y103], the enrichment score was inactive: 1.14.

On to YSGIYYKPESL [L2HGDH_Y103_H98Y], for which the enrichment score is inactive: 1.4.

In the case of HSGIFYKPESL [L2HGDH_Y103_YF], the enrichment score was inactive: 1.13.

FKPGFYNLKEK [LAMA1_Y490_C485Y_YF]: the enrichment score is inactive: 0.8.

Take CKPGFYNLKEK [LAMA1_Y490]: the enrichment score was inactive: 1.12.

With LLPNAYIFVVQ [L1CAM_Y418_A415P_YF], the enrichment score was inactive: 0.664.

For IRSGIYFKPES [L2HGDH_Y102_H98R_YF], the enrichment score is inactive: 1.08.

On to IFSGIYFKPES [L2HGDH_Y102_H98Y_YF], for which the enrichment score was inactive: 1.86.

As to VVGMLYVGGLP [LAMA2_Y2886], the enrichment score is inactive: 1.06.

Turning to ANAFIYDVQLP [L1CAM_Y420_V421D_YF], the enrichment score was inactive: 1.01.

As for STFVPCEIKVQ [L1CAM_Y784_Y784C], the enrichment score is inactive: 0.802.

On to PNAFIYVVQLP [L1CAM_Y420_A415P_YF], for which the enrichment score was inactive: 1.

Consider IHSGIYFKPES [L2HGDH_Y102_YF], for which the enrichment score was inactive: 1.3.

For GLRCGYGVLGG [KRTAP20-2_Y15_Y13C], the enrichment score is inactive: 0.896.

In the case of PNAYIYVVQLP [L1CAM_Y420_A415P], the enrichment score was inactive: 1.47.

For the molecule VVGMLYVGRLP [LAMA2_Y2886_G2889R], the enrichment score is inactive: 0.893.

For a further assay, the target named is SHP2 C-SH2 domain wild-type. The description is as above. The conditions noted are these: peptide library: pTyr-Var.
For LFIGQYSGKKE [L1CAM_Y1229_S1224L], the enrichment score is inactive: 1.91.

With GLRFGYGGLGG [KRTAP20-2_Y15_V17G_YF], the enrichment score is inactive: 0.948.

For KENITYMKREQ [L1TD1_Y24], the enrichment score is inactive: 0.941.

As for HSGIYYKPESL [L2HGDH_Y103], the enrichment score is inactive: 1.

Regarding YSGIYYKPESL [L2HGDH_Y103_H98Y], the enrichment score was active: 3.45.

On to HSGIFYKPESL [L2HGDH_Y103_YF], for which the enrichment score was inactive: 0.972.

For FKPGFYNLKEK [LAMA1_Y490_C485Y_YF], the enrichment score was inactive: 0.78.

CKPGFYNLKEK [LAMA1_Y490]: the enrichment score was inactive: 1.05.

As for LLPNAYIFVVQ [L1CAM_Y418_A415P_YF], the enrichment score was inactive: 0.846.

On to IRSGIYFKPES [L2HGDH_Y102_H98R_YF], for which the enrichment score was inactive: 1.23.

For the molecule IFSGIYFKPES [L2HGDH_Y102_H98Y_YF], the enrichment score is inactive: 1.66.

As to VVGMLYVGGLP [LAMA2_Y2886], the enrichment score was inactive: 1.12.

On to ANAFIYDVQLP [L1CAM_Y420_V421D_YF], for which the enrichment score is inactive: 0.883.

In the case of STFVPCEIKVQ [L1CAM_Y784_Y784C], the enrichment score is inactive: 1.

For the molecule PNAFIYVVQLP [L1CAM_Y420_A415P_YF], the enrichment score was inactive: 1.3.

For IHSGIYFKPES [L2HGDH_Y102_YF], the enrichment score is inactive: 1.23.

GLRCGYGVLGG [KRTAP20-2_Y15_Y13C]: the enrichment score was inactive: 1.01.

In the case of PNAYIYVVQLP [L1CAM_Y420_A415P], the enrichment score is inactive: 1.76.

In the case of VVGMLYVGRLP [LAMA2_Y2886_G2889R], the enrichment score is inactive: 0.792.

In another assay the target is SHP2 N-SH2 domain L43F. The assay is described as above. The conditions noted are these: peptide library: pTyr-Var.
For LFIGQYSGKKE [L1CAM_Y1229_S1224L], the enrichment score is inactive: 1.82.

Regarding GLRFGYGGLGG [KRTAP20-2_Y15_V17G_YF], the enrichment score was inactive: 0.909.

For the molecule KENITYMKREQ [L1TD1_Y24], the enrichment score was inactive: 0.594.

Turning to HSGIYYKPESL [L2HGDH_Y103], the enrichment score was inactive: 1.17.

As to YSGIYYKPESL [L2HGDH_Y103_H98Y], the enrichment score was inactive: 1.55.

As to HSGIFYKPESL [L2HGDH_Y103_YF], the enrichment score is inactive: 1.26.

For the molecule FKPGFYNLKEK [LAMA1_Y490_C485Y_YF], the enrichment score was inactive: 0.727.

As to CKPGFYNLKEK [LAMA1_Y490], the enrichment score is inactive: 0.745.

Turning to LLPNAYIFVVQ [L1CAM_Y418_A415P_YF], the enrichment score was inactive: 0.747.

On to IRSGIYFKPES [L2HGDH_Y102_H98R_YF], for which the enrichment score was inactive: 1.31.

As for IFSGIYFKPES [L2HGDH_Y102_H98Y_YF], the enrichment score is inactive: 2.9.

VVGMLYVGGLP [LAMA2_Y2886]: the enrichment score was inactive: 0.841.

ANAFIYDVQLP [L1CAM_Y420_V421D_YF]: the enrichment score was inactive: 1.03.

In the case of STFVPCEIKVQ [L1CAM_Y784_Y784C], the enrichment score is inactive: 1.01.

Regarding PNAFIYVVQLP [L1CAM_Y420_A415P_YF], the enrichment score is inactive: 0.989.

Regarding IHSGIYFKPES [L2HGDH_Y102_YF], the enrichment score was inactive: 1.45.

As for GLRCGYGVLGG [KRTAP20-2_Y15_Y13C], the enrichment score is inactive: 0.919.

Take PNAYIYVVQLP [L1CAM_Y420_A415P]: the enrichment score was inactive: 1.59.

Take VVGMLYVGRLP [LAMA2_Y2886_G2889R]: the enrichment score is inactive: 0.736.

In the next assay the target is SHP2 N-SH2 domain T42A. The assay is described as above. Conditions: peptide library: pTyr-Var.
In the case of LFIGQYSGKKE [L1CAM_Y1229_S1224L], the enrichment score was inactive: 1.16.

Take GLRFGYGGLGG [KRTAP20-2_Y15_V17G_YF]: the enrichment score is inactive: 1.02.

As for KENITYMKREQ [L1TD1_Y24], the enrichment score was inactive: 0.542.

Take HSGIYYKPESL [L2HGDH_Y103]: the enrichment score was inactive: 0.832.

As to YSGIYYKPESL [L2HGDH_Y103_H98Y], the enrichment score is inactive: 2.35.

As for HSGIFYKPESL [L2HGDH_Y103_YF], the enrichment score is inactive: 1.16.

Consider FKPGFYNLKEK [LAMA1_Y490_C485Y_YF], for which the enrichment score is inactive: 0.656.

Consider CKPGFYNLKEK [LAMA1_Y490], for which the enrichment score was inactive: 0.851.

LLPNAYIFVVQ [L1CAM_Y418_A415P_YF]: the enrichment score is inactive: 0.665.

On to IRSGIYFKPES [L2HGDH_Y102_H98R_YF], for which the enrichment score was inactive: 1.04.

Consider IFSGIYFKPES [L2HGDH_Y102_H98Y_YF], for which the enrichment score was inactive: 1.69.

In the case of VVGMLYVGGLP [LAMA2_Y2886], the enrichment score was inactive: 0.86.

Regarding ANAFIYDVQLP [L1CAM_Y420_V421D_YF], the enrichment score is inactive: 0.884.

With STFVPCEIKVQ [L1CAM_Y784_Y784C], the enrichment score was inactive: 0.744.

With PNAFIYVVQLP [L1CAM_Y420_A415P_YF], the enrichment score is inactive: 0.816.

Turning to IHSGIYFKPES [L2HGDH_Y102_YF], the enrichment score is inactive: 1.37.

On to GLRCGYGVLGG [KRTAP20-2_Y15_Y13C], for which the enrichment score is inactive: 0.68.

In the case of PNAYIYVVQLP [L1CAM_Y420_A415P], the enrichment score was inactive: 1.48.

Regarding VVGMLYVGRLP [LAMA2_Y2886_G2889R], the enrichment score was inactive: 0.708.

The target of another assay is SHP2 N-SH2 domain T52S. The description is as above. Conditions: peptide library: pTyr-Var.
For the molecule LFIGQYSGKKE [L1CAM_Y1229_S1224L], the enrichment score is inactive: 1.67.

Turning to GLRFGYGGLGG [KRTAP20-2_Y15_V17G_YF], the enrichment score was inactive: 0.928.

Turning to KENITYMKREQ [L1TD1_Y24], the enrichment score is inactive: 0.664.

Regarding HSGIYYKPESL [L2HGDH_Y103], the enrichment score is inactive: 0.991.

Consider YSGIYYKPESL [L2HGDH_Y103_H98Y], for which the enrichment score was inactive: 1.74.

Turning to HSGIFYKPESL [L2HGDH_Y103_YF], the enrichment score was inactive: 1.48.

Take FKPGFYNLKEK [LAMA1_Y490_C485Y_YF]: the enrichment score was inactive: 0.762.

As to CKPGFYNLKEK [LAMA1_Y490], the enrichment score is inactive: 0.793.

For LLPNAYIFVVQ [L1CAM_Y418_A415P_YF], the enrichment score was inactive: 0.494.

Turning to IRSGIYFKPES [L2HGDH_Y102_H98R_YF], the enrichment score is inactive: 1.41.

On to IFSGIYFKPES [L2HGDH_Y102_H98Y_YF], for which the enrichment score is inactive: 2.84.

VVGMLYVGGLP [LAMA2_Y2886]: the enrichment score is inactive: 1.15.

For the molecule ANAFIYDVQLP [L1CAM_Y420_V421D_YF], the enrichment score was inactive: 1.06.

With STFVPCEIKVQ [L1CAM_Y784_Y784C], the enrichment score was inactive: 0.797.

Regarding PNAFIYVVQLP [L1CAM_Y420_A415P_YF], the enrichment score was inactive: 1.01.

As for IHSGIYFKPES [L2HGDH_Y102_YF], the enrichment score was inactive: 1.68.

Regarding GLRCGYGVLGG [KRTAP20-2_Y15_Y13C], the enrichment score is inactive: 0.874.

In the case of PNAYIYVVQLP [L1CAM_Y420_A415P], the enrichment score was inactive: 1.64.

In the case of VVGMLYVGRLP [LAMA2_Y2886_G2889R], the enrichment score is inactive: 0.869.

The next assay addresses SHP2 N-SH2 domain wild-type. Described as above. The conditions noted are these: peptide library: pTyr-Var.
With LFIGQYSGKKE [L1CAM_Y1229_S1224L], the enrichment score is inactive: 1.76.

On to GLRFGYGGLGG [KRTAP20-2_Y15_V17G_YF], for which the enrichment score was inactive: 1.12.

Regarding KENITYMKREQ [L1TD1_Y24], the enrichment score was inactive: 0.67.

As to HSGIYYKPESL [L2HGDH_Y103], the enrichment score is inactive: 1.14.

For the molecule YSGIYYKPESL [L2HGDH_Y103_H98Y], the enrichment score is inactive: 0.979.

Take HSGIFYKPESL [L2HGDH_Y103_YF]: the enrichment score is inactive: 1.33.

For FKPGFYNLKEK [LAMA1_Y490_C485Y_YF], the enrichment score was inactive: 0.578.

With CKPGFYNLKEK [LAMA1_Y490], the enrichment score is inactive: 0.938.

For the molecule LLPNAYIFVVQ [L1CAM_Y418_A415P_YF], the enrichment score was inactive: 0.948.

As to IRSGIYFKPES [L2HGDH_Y102_H98R_YF], the enrichment score was inactive: 1.15.

For IFSGIYFKPES [L2HGDH_Y102_H98Y_YF], the enrichment score was inactive: 1.75.

For VVGMLYVGGLP [LAMA2_Y2886], the enrichment score was inactive: 1.31.

With ANAFIYDVQLP [L1CAM_Y420_V421D_YF], the enrichment score was inactive: 0.905.

STFVPCEIKVQ [L1CAM_Y784_Y784C]: the enrichment score is inactive: 0.961.

With PNAFIYVVQLP [L1CAM_Y420_A415P_YF], the enrichment score was inactive: 1.36.

As for IHSGIYFKPES [L2HGDH_Y102_YF], the enrichment score is inactive: 1.43.

GLRCGYGVLGG [KRTAP20-2_Y15_Y13C]: the enrichment score is inactive: 1.07.

With PNAYIYVVQLP [L1CAM_Y420_A415P], the enrichment score was inactive: 1.87.

VVGMLYVGRLP [LAMA2_Y2886_G2889R]: the enrichment score is inactive: 0.707.
